# Source: PubChem BioAssay AID588591 (National Center for Advancing Translational Sciences (NCATS), 2011)
# In all, about 390,000 compounds went through this assay and about 4,700 (1.2%) were called active. This list was built around the results that the source calls inconclusive (neither active nor inactive); the mix of calls is not that of the screen. The call rests on the fitted dose curve; in most records, active means well fitted inhibition curve with a large enough effect; inconclusive means small, poorly fitted or top-dose-only effect, or another doubt; inactive means no such curve, though single readings can be large or run the other way. Potencies of inconclusive entries are doubtful fits and often do not repeat.
# Target: DNA polymerase eta (Homo sapiens) (UniProt Q9Y253)
# Experiment: qHTS for Inhibitors of Polymerase Eta
# Conditions: recombinant Pol eta, fluorescent DNA replication assay; series mostly up to 114 µM; activity change, negative = inhibition: at the top concentration
# In short: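 Pol eta (10 nM) was preincubated with compounds for 15 min at room temperature, after which fluorescent replication substrate (50 nM final) was added to start the reaction. Fluorescence was read kinetically at 0 and 10 min.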
# On the % scale 0 is the no-effect control and ±100 the full control effect; potency means the concentration at half of the fitted maximal effect; tags describe the fitted curve by direction and shape.
# Sequence of UniProt Q9Y253 (Q9Y253 whole entry, looked up): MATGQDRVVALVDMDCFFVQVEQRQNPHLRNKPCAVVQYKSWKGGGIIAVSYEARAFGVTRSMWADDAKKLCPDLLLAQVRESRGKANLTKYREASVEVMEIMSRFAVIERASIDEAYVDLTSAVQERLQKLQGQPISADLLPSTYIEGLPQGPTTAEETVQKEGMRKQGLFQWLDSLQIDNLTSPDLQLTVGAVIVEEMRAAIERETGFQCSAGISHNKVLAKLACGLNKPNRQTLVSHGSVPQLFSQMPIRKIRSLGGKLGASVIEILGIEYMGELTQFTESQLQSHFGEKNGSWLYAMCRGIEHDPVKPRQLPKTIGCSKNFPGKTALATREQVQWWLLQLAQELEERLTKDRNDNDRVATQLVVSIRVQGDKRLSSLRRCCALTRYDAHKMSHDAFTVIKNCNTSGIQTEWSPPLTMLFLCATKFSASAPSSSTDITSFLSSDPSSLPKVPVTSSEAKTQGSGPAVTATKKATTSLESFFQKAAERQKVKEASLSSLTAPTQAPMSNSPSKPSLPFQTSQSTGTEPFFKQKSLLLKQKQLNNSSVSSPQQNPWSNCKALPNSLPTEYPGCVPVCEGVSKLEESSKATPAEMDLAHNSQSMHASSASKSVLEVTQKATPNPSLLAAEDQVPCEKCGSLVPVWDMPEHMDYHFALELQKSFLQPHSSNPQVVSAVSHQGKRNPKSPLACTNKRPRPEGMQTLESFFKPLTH
SMILES,Potency,"activity change, negative = inhibition"
Cc1ccc(-n2nnnc2SCC(=O)N2Cc3ccccc3CC2C(=O)O)cc1 (configuration not stated),"inconclusive: 15.8 µM [inhibitor, partial curve, poor fit]",–
COc1ccc(-c2nc3cnccn3c2NC2CCCCC2)cc1-c1cccc(Cl)c1,"inconclusive: 100 µM [inhibitor, partial curve, poor fit]",–
COc1ccccc1OCCOCCOc1c(C)cc(C)cc1Br,"inconclusive: 35.5 µM [inhibitor, partial curve, poor fit]",–
Cc1cccc(-n2c3nc(=O)[nH]c(=O)c-3cc3ccc(Cl)cc32)c1C,–,inactive: 1.87%
COc1cc(OC)c2ccc(=O)oc2c1C(CC(=O)N1CCCC(C)C1)c1ccc2c(c1)OCO2 (configuration not stated),active: 39.8 µM,–
COc1ccc(OC)c(-c2noc(N3CCN(c4cccc(C(F)(F)F)c4)CC3)n2)c1,–,inactive: -20.6%
CC(C)CCNC(=O)c1cc(-c2cccnc2)nc2ccc(S(=O)(=O)N3CCC(C)CC3)cc12,–,inactive: -15.1%
Nc1ccc2nc(-c3ccc(N)c(Cl)c3)[nH]c2c1,"inconclusive: 31.6 µM [inhibitor, partial curve, poor fit]",–
Cc1nn(Cc2ccc(F)cc2)c(C)c1NC(=O)c1noc2c1CCc1ccccc1-2,"inconclusive: 79.4 µM [inhibitor, partial curve, poor fit]",–
O=C(CN1C(=O)NC2(CCCCC2)C1=O)Nc1nc2c(F)cc(F)cc2s1,"inconclusive: 35.5 µM [inhibitor, single point]",–
Cn1c(=O)c2c(nc(NCc3ccco3)n2CCc2ccccc2)n(C)c1=O,"inconclusive: 25.1 µM [inhibitor, partial curve]",–
O=C(Nc1ccc(S(=O)(=O)Nc2ncccn2)cc1)c1nn(Cc2ccccc2)c(=O)c2ccccc12,active: 79.4 µM,–
CC(C)c1ccc(C2CC(=O)N3CN(C4CCCCC4)CSC3=C2C#N)cc1 (configuration not stated),"inconclusive: 89.1 µM [inhibitor, single point]",–
CC1CCN(C(=O)CSCC(=O)Nc2nc(-c3cccs3)cs2)CC1,"inconclusive: 70.8 µM [inhibitor, partial curve, poor fit]",–
COc1ccc(/C=C2\SC(=S)N(NS(=O)(=O)c3ccc(C)cc3)C2=O)c(OC)c1,"inconclusive: 56.2 µM [inhibitor, partial curve, poor fit]",–
C[C@H](NC(=O)/C(C#N)=C/c1ccc(O)c(O)c1)c1ccccc1,active: 22.4 µM,–
CSc1ccc(C(=O)C2CCCN(S(=O)(=O)c3c(C)noc3C)C2)cc1 (configuration not stated),"inconclusive: 100 µM [inhibitor, partial curve]",–
O=[N+]([O-])c1cc(-c2csc(NCCc3nc4cc(Cl)c(Cl)cc4n3CCCO)n2)ccc1Cl,"inconclusive: 28.2 µM [inhibitor, partial curve, poor fit]",–
Cc1ccc(C(=O)Nc2nc(-c3ccco3)c(-c3ccco3)s2)o1,active: 14.1 µM,–
COc1ccc(N(C(=O)CCl)C(C(=O)NCCc2ccccc2)c2cccs2)cc1 (configuration not stated),"inconclusive: 31.6 µM [inhibitor, partial curve, poor fit]",–
CCNc1nc(SCc2ccccc2)nc(N2CCOCC2)n1,"inconclusive: 63.1 µM [inhibitor, partial curve, poor fit]",–

SMILES,Potency,"activity change, negative = inhibition"
CCOc1ccc(NC(=O)Cn2c(=O)n(CC(=O)NCCc3ccccc3)c(=O)c3sccc32)cc1,–,inactive: 19.8%
N#Cc1ccc(-c2cccnc2)nc1SCC(=O)Nc1sc2c(c1C#N)CCC2,active: 79.4 µM,–
O=c1[nH]c(-[n+]2ccc3ccccc3c2)c(/C=N/N=C(\[O-])c2ccccc2)s1,"inconclusive: 79.4 µM [inhibitor, partial curve, poor fit]",–
COc1ccc2cc(CNc3ccccc3)c(=O)n(CC(=O)Nc3ccc(C(C)=O)cc3)c2c1,–,inactive: -0.441%
Cc1ccccc1NC(=O)Cc1nc(COC(=O)c2ccc(Cl)nc2)cs1,–,inactive: 0.278%
CC(C)(C)C(=O)Nc1ccc2nc(SCc3ccccc3)sc2c1,"inconclusive: 79.4 µM [inhibitor, partial curve, poor fit]",–
COc1cc2cc(CCCOC(=O)CCC(=O)O)oc(=O)c2cc1OC,–,inactive: -6.59%
Cc1ccc(C)c(S(=O)(=O)Nc2ccc(C(=O)NCCc3ccccn3)cc2)c1,"inconclusive: 100 µM [inhibitor, partial curve, poor fit]",–
COc1ccccc1C=NNC(=O)C(=O)NN=Cc1ccccc1OC,–,inactive: 1.88%
CC1=NN(c2cccc(F)c2)C(=O)/C1=C/c1ccc(N(C)C)cc1,–,inactive: 1.02%
COCCN(C(=O)CSc1nc(-c2ccccc2)cn1N)c1c(N)n(Cc2ccccc2)c(=O)[nH]c1=O,"inconclusive: 28.2 µM [inhibitor, partial curve, poor fit]",–
O=C(Nc1cccc(Cl)c1)Nc1nnc(-c2ccncc2)s1,"inconclusive: 5.01 µM [inhibitor, full curve, poor fit]",–
COCCN(C(=O)c1cc2c(s1)CCCCC2)c1c(N)n(CC(C)C)c(=O)[nH]c1=O,–,inactive: -8.24%
CCC(Sc1ccc(C(=O)O)cc1)C(=O)O (configuration not stated),"inconclusive: 12.6 µM [inhibitor, partial curve]",–
O=C1NC(=Nc2ccccc2Cl)S/C1=C\c1ccc(C(=O)O)cc1,"inconclusive: 89.1 µM [inhibitor, single point]",–
N#CC(C#N)=Cc1ccc(-c2ccc(S(=O)(=O)N=C(N)N)cc2)o1,active: 20 µM,–
Cc1cc(CCC(=O)O)c(C)cc1CCC(=O)O,–,inactive: -6.76%
CC1=CC(=O)N(c2ccc(C)cc2)C1c1ccc(Cl)cc1 (configuration not stated),"inconclusive: 89.1 µM [inhibitor, partial curve, poor fit]",–
CN(C)c1cc(-c2cccc([N+](=O)[O-])c2)oc(=O)c1Cl,"inconclusive: 2.82 µM [inhibitor, partial curve, poor fit]",–
O=C(O)c1cc(-c2ccc(Br)s2)nc2ccccc12,"inconclusive: 56.2 µM [inhibitor, partial curve, poor fit]",–
Cc1ccc(S(=O)(=O)NCC(=O)N(CC(=O)NC2CCCCC2)Cc2ccco2)cc1,"inconclusive: 89.1 µM [inhibitor, partial curve, poor fit]",–
